The results in this text go back to paper PMC12040169 (PLOS Biology, 2025).

The other results are listed elsewhere or left out.

The assay has as its system T1, C. trachomatis L2/434/Bu expressing GFP (CTL2-GFP).
T1 construct: L2/434/Bu GFP intracellular growth in HeLa cells
Also on record: species or system HeLa; C. trachomatis total inclusion area by high-content imaging, normalised to DMSO. The note with it: total inclusion area; 28.5 h, 10 µM; inhibitor. The gist of the method: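 Host cell viability was gauged from Hoechst-stained nuclei counts, while chlamydial growth was taken from total inclusion area and inclusion number per well. Cells were fixed and imaged by high-content microscopy once bulk GFP and resorufin fluorescence had been measured.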
Turning to `CN(C(=O)Cc1ccsc1)c1nc2c(s1)CCc1c-2cnn1C` [CBK281929], the “% of control remaining” value was determined as 37.1858. Next, `Cc1ncsc1C(=O)NCc1ccc(S(=O)(=O)N2CCCCC2)cc1` [CBK305556]: 97.1546; `c1ccc2c(c1)nc(-c1cscn1)n2Cc1ccc(-c2nnn[nH]2)cc1` [CBK266979]: 119.262.

Regarding `O=C(Cn1c(C(F)(F)F)nc2ccccc21)NCCN1CCCC1` [CBK267150], the “% of control remaining” value was 122.501.

With `Cc1ccc(S(=O)(=O)N(C)CC(=O)NCc2nc(-c3ccccc3)no2)cc1` [CBK268524], the “% of control remaining” value is 133.947.

Regarding `COc1ccc(C(=O)COC(=O)c2cc(-c3ccc(Cl)cc3)nc3ccc(C)cc23)cc1[N+](=O)[O-]` [CBK264072], the “% of control remaining” value is on record as 103.028. Take `CCN1CCC(NC(=O)CSc2nc3ccccc3n2CC(C)C)CC1` [CBK304995]: the “% of control remaining” value was found to be 66.9217.

As for `CCc1nc2ccc(C(=O)N3CCN(C)CC3)cn2c1N(C)Cc1ccc(NC(C)=O)cc1` [CBK145603], the “% of control remaining” value is recorded as 101.069.

On to `O=c1c2ccccc2nc2c3ccccc3c(NCc3ccccn3)nn12` [CBK265964], for which the “% of control remaining” value worked out at 88.0301. In the case of `Cn1c(C(=O)N2CCc3ccccc3C2)cc2ccccc21` [CBK200337], the “% of control remaining” value was determined as 102.386.

For the compound `COc1ccccc1-c1cnc(N)c(NCc2ccccc2)n1` [CBK063357], the “% of control remaining” value is reported as 129.37. The figure for `Cc1cccn2cc(-c3ccc4c(c3)CCN4S(C)(=O)=O)cc12` [CBK285226] is 116.882. As to `Cc1c2c(n(-c3ccccc3)[n+]1[O-])NC1(CCC1)[C@@H]1C[C@@H](O)[C@@H](O)[C@H]21` [CBK303253], the “% of control remaining” value is 89.582. Next, `Cc1ccc(C2(O)CCN(CCNC(=O)C3CC3C)CC2)cc1` (centres unmarked) [CBK282607]: 92.4028; `Cc1nc(-c2ccc(CNC(=O)c3cc(=O)[nH]c4ccccc34)o2)cs1` [CBK238261]: 104.036. Consider `CN(C)C(=O)Cn1nc(C(c2ccccc2)c2ccccc2)oc1=O` [CBK283747], for which the “% of control remaining” value is given as 93.8097. Next, `c1ccc(-c2cc(CC3(NCc4cccnc4)COC3)no2)nc1` [CBK289238]: 119.503; `CNC(=O)CN1CCC[C@@H]2NC(=O)COc3ccccc3C(=O)N[C@@H]3CCOC[C@@H]3C/C=C/C[C@@H]21` [CBK292040]: 84.392.

For `Cc1cc(C(=O)N2CCC(C(=O)c3ccnn3C)CC2)sc1C` [CBK284428], the “% of control remaining” value worked out at 73.6679. For the compound `Cc1ccc2cc3c(nc2c1)OCC(=O)N(Cc1ccco1)C3` [CBK283539], the “% of control remaining” value is recorded as 88.4813. The figure for `CC(=O)N1CCC(N2CC[C@H](c3nnc(-c4ccco4)o3)C2)CC1` [CBK289395] is 118.046. The figure for `O=C(Nc1ccn(C23CC4CC(CC(C4)C2)C3)n1)c1ccco1` [CBK288023] is 84.2923; for `Cc1[nH]c2ccc(F)cc2c1-c1cn2c3c(nnc2n1)CCCC3` [CBK283172] it is 123.342; for `O=C(Nc1ccccc1)[C@H]1O[C@H](CCN2CCN(c3ccccn3)CC2)CC[C@@H]1O` [CBK288726] it is 103.021. As for `COC(=O)C(C)CSc1ccc(C(C)(C)C)cc1` (centres unmarked) [CBK010499], the “% of control remaining” value is 76.7746. Regarding `CCOC(=O)c1cnc2c(C)c(Cl)ccc2c1NCCN(C)C` [CBK265965], the “% of control remaining” value is recorded as 83.6669.

With `COc1ccc(C(CNC(=O)C(=O)Nc2ccc(C(=O)O)cc2)N(C)C)cc1` (centres unmarked) [CBK286724], the “% of control remaining” value was 41.4191. The figure for `O=C(Nc1nnc(-c2ccccn2)o1)c1cc(Cl)ccc1Cl` [CBK287429] is 86.8208; for `Cc1cc(COc2cc(N3CCCC3)ncn2)no1` [CBK115898] it is 110.627. Turning to `O=C1C2N=NN(Cc3ccccc3)C2C(=O)N1C1CCCCC1` (centres unmarked) [CBK067389], the “% of control remaining” value was 113.212. The figure for `C[C@H](c1ccccc1)n1c(=O)[nH]c2ncc(-c3cncc4ccccc34)nc21` [CBK064709] is 139.137; for `Cn1nc(C2CC2)cc1NS(C)(=O)=O` [CBK038148] it is 127.451; for `Cc1cc(NC(=O)CCn2cc(Br)cn2)no1` [CBK304326] it is 46.1289.

On to `Cc1ccnn1CCNC(=O)C(C)Cc1cccs1` (centres unmarked) [CBK281633], for which the “% of control remaining” value came to 98.7553.

Turning to `Cc1nn(CC(=O)NC(C)c2cccnc2)c(C)c1C` (centres unmarked) [CBK281489], the “% of control remaining” value is 74.4395. The figure for `O=C(c1ccccc1F)N1C[C@H](c2ccsc2)[C@H]2CN(Cc3ccsc3)CC[C@H]21` [CBK285661] is 78.1919; for `CN(CCOC(=O)c1cccnc1)C(C)(C)C` [CBK027543C] it is 120.839. As for `CCOc1ccc(CSC2=NCCN2)cc1Cl` [CBK027449C], the “% of control remaining” value was determined as 97.3113. As to `Cc1ccc(OCCn2ccnc(N3CCNCC3)c2=O)c([N+](=O)[O-])n1` [CBK001381C], the “% of control remaining” value was determined as 86.2087.

As for `CC1(C)CCN(Cc2ccccc2)C1CC#N` (centres unmarked) [CBK006978C], the “% of control remaining” value stood at 81.7004.

Turning to `CC(C)Nc1nc2ccccc2nc1SCCc1ccncc1` [CBK103670], the “% of control remaining” value worked out at 73.5498.

Regarding `CC(Cn1cncn1)NS(=O)(=O)c1cccc(C(=O)N2CCCCC2)c1` (centres unmarked) [CBK306594], the “% of control remaining” value is 77.4642. `COc1nccnc1N1CCN(CC(=O)Nc2c(C)cccc2C)CC1` [CBK084220]: the “% of control remaining” value is 88.5202. Next, `CCN(CC(=O)NCc1ccc(C)cc1)S(=O)(=O)c1ccc(C)cc1` [CBK267511]: 86.3852; `O=C(c1cccnc1)C1CCN(C(=O)Cc2ccc(F)cc2)CC1` [CBK283515]: 87.7279. On to `S=C(NCCc1ccccc1)NCCn1cc(Cl)cn1` [CBK266912], for which the “% of control remaining” value is 87.028.

For `CCC1CCCCN1C(=O)c1cc(Br)c(Br)s1` (centres unmarked) [CBK089360], the “% of control remaining” value stood at 78.7414. The figure for `CCCc1nc(-c2ccc3c(c2)CCCN3S(C)(=O)=O)cs1` [CBK306253] is 130.021. The figure for `Cc1c(Cl)cccc1NC(=S)NNC(=O)C(C)Oc1ccc(F)cc1F` (centres unmarked) [CBK266823] is 85.291; for `Cc1nnc2n1CCN(C(=O)CC1OCCc3sccc31)C2` (centres unmarked) [CBK304956] it is 81.807. On to `O=C(c1cc2c(s1)CCCC2)N1CCCCC1c1nnc(-c2nccc3ccccc23)o1` (centres unmarked) [CBK285577], for which the “% of control remaining” value is reported as 116.193. The figure for `CC(=O)c1ccccc1-c1ccc(C(=O)N2CCN(C)CC2)c(NCC2CC2)n1` [CBK076613] is 106.646; for `Cc1ccccc1C(NC(=O)C1CCN(C(=O)CCC2CCCC2)CC1)c1ccccn1` (centres unmarked) [CBK059677] it is 101.315; for `O=C(OCc1ccccc1)N1CCC2(CC1)CN(c1ccc(C(F)(F)F)cn1)CCO2` [CBK161116T] it is 92.1607.

Consider `COCCOCC(=O)N1CC(=O)N(c2ccccc2C#N)CC1C` (centres unmarked) [CBK307258], for which the “% of control remaining” value is on record as 61.6607. Consider `O=C(Cc1cccc(F)c1)N1C2CCC1CC(O)(c1ccco1)C2` (centres unmarked) [CBK284138], for which the “% of control remaining” value came to 97.6877. For the compound `S=C(Nc1ccc(Nc2ccccc2)cc1)N1CCN(Cc2ccc3c(c2)OCO3)CC1` [CBK266141], the “% of control remaining” value was found to be 111.189.

With `Nc1ncc(-c2ccc(C(=O)N3CCOCC3)cc2)nc1-c1ccc(C[C@H](N)C(=O)O)cc1` [CBK126364], the “% of control remaining” value is 106.062.

Regarding `Cc1cc(C(=O)NC2CCCC2)n[nH]1` [CBK200240], the “% of control remaining” value was 99.9265. Next, `CC(C)N(C(=O)Cn1nc(-c2cccs2)ccc1=O)C(C)C` [CBK282638]: 131.847; `Cc1noc(CN2CCNC(=O)C2c2ccccc2C(F)(F)F)n1` (centres unmarked) [CBK306405]: 86.2938; `NC(=O)CC1C(=O)N(c2ccc(F)cc2)C(=S)N1NC(=O)CCc1ccccc1` (centres unmarked) [CBK268978A]: 119.937. Next, `O=C(CNS(=O)(=O)c1ccc(Br)cc1)N1CCN(Cc2ccc3c(c2)OCO3)CC1` [CBK074358]: 83.8213; `O=S(=O)(NCC1COc2ccccc2O1)c1cc(Cl)sc1Cl` (centres unmarked) [CBK057394]: 90.8597; `COc1cccc2cc(C(=O)NCCc3ccc(O)cc3)oc12` [CBK149802]: 83.1585. The figure for `N#Cc1ccc(CN2C(=O)c3ccccc3C2=O)cc1` [CBK029022] is 100.151; for `CCCn1cnc2cc(NC(=O)c3ccc(=O)n(CC(=O)N(C)c4ccccc4)c3)ccc21` [CBK286026] it is 79.4614; for `CC1CN(Cc2cccc(CNc3ncccc3C#N)c2)CCO1` (centres unmarked) [CBK303994] it is 48.1414. For `CN(Cc1cnn(C)c1)c1nccc(N2CCN[C@H]3CS(=O)(=O)C[C@H]32)n1` [CBK306964], the “% of control remaining” value is recorded as 87.5781. Consider `c1ccc2c(c1)nc1n2CCN1CCN1CCCCC1` [CBK278283C], for which the “% of control remaining” value came out at 98.3418. For `CC(C)Oc1ncc(C(=O)NCCCC(=O)O)cc1Cl` [CBK305192], the “% of control remaining” value is 66.1294. The figure for `O=C(CN1CCN(CCN2C(=O)c3cccc4cccc(c34)C2=O)CC1)c1ccc(Cl)cc1` [CBK265363] is 95.5387; for `CC(C)c1cc(C(=O)N2C[C@H](C)N(Cc3ccco3)C[C@@H]2C)on1` [CBK283053] it is 82.2758; for `Cc1cc(S(=O)(=O)NCC(C)n2nc(C)c(C)c2C)ccc1F` (centres unmarked) [CBK282010] it is 81.065. As for `CCN1CCN(C(=O)c2ccc(C)c(S(=O)(=O)Nc3cccc(C)c3)c2)CC1` [CBK268226], the “% of control remaining” value was 86.1874.

For `Cc1ccc(CN2CCCC(n3c(=O)oc4ccccc43)C2)o1` (centres unmarked) [CBK284871], the “% of control remaining” value is listed as 112.875.

Turning to `Nc1ncc(-c2ccc(-c3ccccc3)cc2)nc1NC1CCCCC1` [CBK063572], the “% of control remaining” value is recorded as 108.035. For `CN(C)[C@@H]1CN(Cc2ccc(O)cc2)C[C@H]1c1cn(C)c2ccccc12` [CBK284952], the “% of control remaining” value was determined as 95.7825. Next, `Cc1cc2cc(C(F)(F)F)nc-2n(CC(=O)NC2CC2)c1` [CBK282888]: 71.7324; `Cc1ccc(Oc2c([N+](=O)[O-])ncn2C)c(Br)c1` [CBK002819]: 45.7174.
